In the experiment the test system is Jurkat T cells. Description: Apoptosis by selective PTPC agonists (ATR, STS, PK11195) in Jurkat T cells. To be noted: ANT agonist ATR, NFV pretreated.

This note sets out measurements from US20050020580A1, “Materials and methods for the prevention or treatment of apoptosis and apoptosis-related diseases and conditions” (priority 2002, published 2005).

`Cc1c(O)cccc1C(=O)N[C@@H](CSc1ccccc1)[C@H](O)CN1C[C@H]2CCCC[C@H]2C[C@H]1C(=O)NC(C)(C)C` [NFV, nelfinavir]: the “ATR induced loss of ΔΨm, cytochrome c release, caspase 9, caspase 3, PARP cleavage and caspase 3 activation” value is listed as “inhibited”.
